According to PubChem BioAssay AID256 (DTP/NCI, 2004):
Further values from the same series stand in other lists. Inconclusive results and toxic doses are left out.

Tested on: CD2F1 mice, L1210 leukemia ip, survival T/C
Experiment: NCI In Vivo Anticancer Drug Screen. Data for tumor model L1210 Leukemia (intraperitoneal) in CD2F1 (CDF1) mice
Details: higher = longer survival
Outline: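 In this screen, transplantable tumors were grown in mice given either the compound or its vehicle. Results were expressed as the treated measurement relative to the control measurement.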

COc1cc(NS(C)(=O)=O)ccc1Nc1c2ccccc2nc2ccccc12
T/C (endpoint: mean survival time, dose: 0.11 mg/kg/injection, schedule: Q01DX009 (ip), vehicle: saline with Tween-80): 100 % of control
T/C (endpoint: mean survival time, dose: 0.16 mg/kg/injection, schedule: Q01DX009 (ip), vehicle: saline with Tween-80): 105 % of control
T/C (endpoint: mean survival time, dose: 1.0 mg/kg/injection, schedule: Q01DX009 (sc), vehicle: saline): 108 % of control
T/C (endpoint: mean survival time, dose: 1.0 mg/kg/injection, schedule: Q03HX016 (ip), vehicle: saline): 152 % of control
T/C (endpoint: mean survival time, dose: 2.0 mg/kg/injection, schedule: Q01DX009 (sc), vehicle: saline): 113 % of control
T/C (endpoint: mean survival time, dose: 2.0 mg/kg/injection, schedule: Q03HX008 (ip), vehicle: saline): 155 % of control
T/C (endpoint: mean survival time, dose: 2.0 mg/kg/injection, schedule: Q03HX016 (ip), vehicle: saline): 212 % of control
T/C (endpoint: mean survival time, dose: 4.0 mg/kg/injection, schedule: Q01DX009 (ip), vehicle: saline): 152 % of control
T/C (endpoint: mean survival time, dose: 4.0 mg/kg/injection, schedule: Q01DX009 (oral), vehicle: saline): 105 % of control
T/C (endpoint: mean survival time, dose: 4.0 mg/kg/injection, schedule: Q03HX008 (ip), vehicle: saline): 210 % of control
T/C (endpoint: mean survival time, dose: 4.0 mg/kg/injection, schedule: Q03HX016 (ip), vehicle: saline): 249 % of control
T/C (endpoint: mean survival time, dose: 4.0 mg/kg/injection, schedule: Q03HX024 (ip), vehicle: saline): 86 % of control
T/C (endpoint: mean survival time, dose: 6.25 mg/kg/injection, schedule: Q01DX001 (ip), vehicle: Klucel (hydroxypropylcellulose) (HPC)): 120 % of control
T/C (endpoint: mean survival time, dose: 7.5 mg/kg/injection, schedule: Q01DX009 (ip), vehicle: Klucel (hydroxypropylcellulose) (HPC)): 118 % of control
T/C (endpoint: mean survival time, dose: 8.0 mg/kg/injection, schedule: Q01DX001 (sc), vehicle: saline): 104 % of control
T/C (endpoint: mean survival time, dose: 8.0 mg/kg/injection, schedule: Q01DX009 (oral), vehicle: saline): 112 % of control
T/C (endpoint: mean survival time, dose: 8.0 mg/kg/injection, schedule: Q01DX009 (sc), vehicle: saline): 124 % of control
T/C (endpoint: mean survival time, dose: 15.0 mg/kg/injection, schedule: Q01DX001 (ip), vehicle: Klucel (hydroxypropylcellulose) (HPC)): 124 % of control
T/C (endpoint: mean survival time, dose: 15.0 mg/kg/injection, schedule: Q01DX009 (ip), vehicle: Klucel (hydroxypropylcellulose) (HPC)): 101 % of control
T/C (endpoint: mean survival time, dose: 16.0 mg/kg/injection, schedule: Q01DX001 (sc), vehicle: saline): 116 % of control
T/C (endpoint: mean survival time, dose: 16.0 mg/kg/injection, schedule: Q01DX009 (oral), vehicle: saline): 113 % of control
T/C (endpoint: mean survival time, dose: 16.0 mg/kg/injection, schedule: Q01DX009 (sc), vehicle: saline): 109 % of control
T/C (endpoint: mean survival time, dose: 16.0 mg/kg/injection, schedule: Q04DX003 (ip), vehicle: saline): 168 % of control
T/C (endpoint: mean survival time, dose: 16.0 mg/kg/injection, schedule: Q08DX002 (ip), vehicle: saline): 151 % of control
T/C (endpoint: mean survival time, dose: 32.0 mg/kg/injection, schedule: Q01DX001 (ip), vehicle: saline): 158 % of control
T/C (endpoint: mean survival time, dose: 32.0 mg/kg/injection, schedule: Q01DX001 (oral), vehicle: saline): 106 % of control
T/C (endpoint: mean survival time, dose: 32.0 mg/kg/injection, schedule: Q01DX001 (sc), vehicle: saline): 120 % of control
T/C (endpoint: mean survival time, dose: 32.0 mg/kg/injection, schedule: Q08DX002 (ip), vehicle: saline): 158 % of control
T/C (endpoint: mean survival time, dose: 60.0 mg/kg/injection, schedule: Q01DX001 (ip), vehicle: Klucel (hydroxypropylcellulose) (HPC)): 245 % of control
T/C (endpoint: mean survival time, dose: 60.0 mg/kg/injection, schedule: Q04DX003 (ip), vehicle: Klucel (hydroxypropylcellulose) (HPC)): 102 % of control
T/C (endpoint: mean survival time, dose: 64.0 mg/kg/injection, schedule: Q01DX001 (ip), vehicle: saline): 262 % of control
T/C (endpoint: mean survival time, dose: 64.0 mg/kg/injection, schedule: Q01DX001 (oral), vehicle: saline): 121 % of control
T/C (endpoint: mean survival time, dose: 64.0 mg/kg/injection, schedule: Q01DX001 (sc), vehicle: saline): 120 % of control
T/C (endpoint: mean survival time, dose: 64.0 mg/kg/injection, schedule: Q04DX003 (ip), vehicle: saline): 112 % of control
T/C (endpoint: mean survival time, dose: 100.0 mg/kg/injection, schedule: Q01DX009 (ip), vehicle: saline with Tween-80): 89 % of control
T/C (endpoint: mean survival time, dose: 120.0 mg/kg/injection, schedule: Q01DX001 (ip), vehicle: Klucel (hydroxypropylcellulose) (HPC)): 112 % of control
T/C (endpoint: mean survival time, dose: 128.0 mg/kg/injection, schedule: Q01DX001 (sc), vehicle: saline): 121 % of control
T/C (endpoint: median survival time, dose: 16.0 mg/kg/injection, schedule: Q01DX001 (ip), vehicle: other): 168 % of control
